# Laboratory results from PubChem BioAssay AID1347165 (National Center for Advancing Translational Sciences (NCATS), 2019).
# In all, about 220,000 compounds went through this assay and about 5,700 (2.6%) were called active. The inconclusive results got no clear call from the source; some entries with a clear call stand among them for comparison. Calls follow the shape of the dose curve; as a rule, active = well fitted inhibition curve with a large enough effect; inconclusive = small, poorly fitted or top-dose-only effect; inactive = no such curve, though single readings can be large or run the other way. Where the call is inconclusive, the potency comes from a doubtful curve fit.
# Biological target: Lysine-specific demethylase 5B (Homo sapiens) (UniProt Q9UGL1)
# Assay: Primary screen for KDM5B Histone Demethylases FDH-coupled qHTS; also: nearly all actives have a fitted effect of over 70% in size
# Conditions: FDH-coupled NADH fluorescence (FDH is formaldehyde dehydrogenase); series mostly up to 57.7 µM
# Outline: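 Measured: NADH fluorescence change, 30 min, RT. System: KDM5BΔAP 200 nM final, H3K4me3 peptide, α-KG, Fe(II), ascorbate, NAD⁺ plus FDH, pH 7.5 HEPES. Compounds: titrated, 10 min pre-incubation with enzyme.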
# Potency is read from the fitted curve at half-maximal effect; tags tell the direction and shape of the fitted curve.
# UniProt Q9UGL1, sequence (Q9UGL1 whole entry, looked up): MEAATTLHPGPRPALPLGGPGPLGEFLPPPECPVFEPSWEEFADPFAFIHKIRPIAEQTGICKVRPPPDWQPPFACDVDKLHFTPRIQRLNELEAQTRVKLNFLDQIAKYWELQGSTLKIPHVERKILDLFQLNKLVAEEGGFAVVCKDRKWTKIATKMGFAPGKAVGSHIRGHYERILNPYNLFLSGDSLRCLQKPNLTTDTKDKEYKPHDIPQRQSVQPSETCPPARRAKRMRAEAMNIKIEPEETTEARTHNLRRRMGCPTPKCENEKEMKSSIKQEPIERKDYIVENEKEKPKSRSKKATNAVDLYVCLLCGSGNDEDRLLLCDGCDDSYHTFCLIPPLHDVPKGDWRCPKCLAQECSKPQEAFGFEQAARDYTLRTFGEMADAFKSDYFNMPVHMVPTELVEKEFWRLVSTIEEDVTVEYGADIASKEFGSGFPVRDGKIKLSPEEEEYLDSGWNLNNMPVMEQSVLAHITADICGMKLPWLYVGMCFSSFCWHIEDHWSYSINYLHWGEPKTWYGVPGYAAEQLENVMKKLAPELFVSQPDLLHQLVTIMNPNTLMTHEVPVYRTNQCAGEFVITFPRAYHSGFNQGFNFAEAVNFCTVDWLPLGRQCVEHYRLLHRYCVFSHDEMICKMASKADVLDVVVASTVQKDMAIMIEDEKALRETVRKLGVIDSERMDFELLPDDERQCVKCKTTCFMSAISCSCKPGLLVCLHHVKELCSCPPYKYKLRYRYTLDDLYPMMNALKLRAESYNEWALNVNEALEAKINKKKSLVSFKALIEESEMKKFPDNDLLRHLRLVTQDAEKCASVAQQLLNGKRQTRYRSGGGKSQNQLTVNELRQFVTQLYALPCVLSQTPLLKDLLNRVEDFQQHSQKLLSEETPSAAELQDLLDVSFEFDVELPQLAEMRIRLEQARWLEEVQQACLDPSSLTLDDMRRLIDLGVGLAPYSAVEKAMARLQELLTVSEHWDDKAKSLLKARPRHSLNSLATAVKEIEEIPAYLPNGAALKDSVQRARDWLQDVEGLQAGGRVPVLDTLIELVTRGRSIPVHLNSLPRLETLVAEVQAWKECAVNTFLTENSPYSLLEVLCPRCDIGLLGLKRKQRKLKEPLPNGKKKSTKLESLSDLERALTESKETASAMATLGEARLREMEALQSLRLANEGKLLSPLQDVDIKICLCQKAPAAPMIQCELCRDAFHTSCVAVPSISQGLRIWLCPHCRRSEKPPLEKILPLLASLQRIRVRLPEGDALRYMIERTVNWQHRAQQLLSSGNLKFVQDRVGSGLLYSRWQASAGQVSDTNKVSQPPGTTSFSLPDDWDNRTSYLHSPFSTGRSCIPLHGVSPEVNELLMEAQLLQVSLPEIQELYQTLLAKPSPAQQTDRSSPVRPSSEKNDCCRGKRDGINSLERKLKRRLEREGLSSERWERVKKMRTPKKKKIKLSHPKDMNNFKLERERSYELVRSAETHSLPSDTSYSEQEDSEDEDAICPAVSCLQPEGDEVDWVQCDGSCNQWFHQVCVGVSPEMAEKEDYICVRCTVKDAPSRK
row,SMILES,Potency
1,COc1nccnc1NC1CCN(S(=O)(=O)c2ccccc2)CC1,active: 25.1 µM
2,Cc1cccc2c1-c1sc(C(=O)N3CCN(c4ccccc4)CC3)cc1CO2,"inconclusive: 25.1 µM [inhibitor, partial curve, poor fit]"
3,Cc1noc(C)c1-c1cc2c(cc(C)n2CCN(C)C)c(-c2ccc(CO)cc2)n1,active: 25.1 µM
4,CCOc1ccccc1OCCCC(=O)Oc1ccc(-c2ccc(C#N)cc2)cc1,"inconclusive: 25.1 µM [inhibitor, partial curve, poor fit]"
5,COc1cccc2cc(-c3csc(-c4ccc(F)cc4)n3)c(=O)oc12,inactive
6,Cc1nc(-c2ccccc2)n(Cc2ccc(F)c(F)c2)c(=O)c1CCO,"inconclusive: 8.91 µM [inhibitor, partial curve]"
7,O=C(CC1=CCCCC1)N[C@@H]1CN(c2ncccn2)C[C@H]1CO,"inconclusive: 22.4 µM [inhibitor, single point]"
8,CN(C)C[C@@H]1CN(c2ncccn2)C[C@H]1NC(=O)CCCc1ccccc1,active: 31.6 µM
9,COc1cccc([C@H]2CN(C(=O)CNC(=O)N(C)C)C[C@@H]2N)c1,inactive
10,CCC(NCc1ccc(C(N)=O)cc1)c1ccc(Cl)cc1 (centres undefined),inactive
11,CCn1ncc(N2CCCC(CC(=O)NCc3ccccn3)C2)cc1=O (centres undefined),inactive
12,Nc1nc(CN2CCN(c3cccc(C(F)(F)F)c3)CC2)nc(N2CCCc3ccccc32)n1,"inconclusive: 39.8 µM [inhibitor, single point]"
13,O=C(NCc1ccncc1)C1CN(S(=O)(=O)c2ccccc2)CC12CCCCC2 (centres undefined),inactive
14,COc1ccc(-c2noc(-c3nnn4c3COC(c3ccc(Cl)cc3)C4)n2)c(OC)c1 (centres undefined),"inconclusive: 15.8 µM [inhibitor, partial curve, poor fit]"
15,COc1cc2c(cc1/C=C(/C#N)c1ccccn1)OC(C)C2 (centres undefined),"inconclusive: 11.2 µM [inhibitor, partial curve, poor fit]"
16,CSc1ccc(CNC(=O)c2cc3c(s2)CCCC3)cc1,inactive
17,Fc1cccc(/C=C2\CCCC3=C2NC(=S)NC3c2cccc(F)c2)c1 (centres undefined),"inconclusive: 14.1 µM [inhibitor, partial curve, poor fit]"
18,CC1(C)CC(=O)c2cc(-c3nc(-c4ccccc4)cs3)c(=O)[nH]c2C1,"inconclusive: 1.58 µM [inhibitor, partial curve, poor fit]"
19,O=C(Nc1cccnc1)c1cnc2c(c1)N(Cc1ccccc1)CCC2,active: 35.5 µM
20,O=C(c1cc(Cl)cc(Cl)c1)N1CCN(c2cc(C(F)(F)F)nc3ccccc23)CC1,"inconclusive: 28.2 µM [inhibitor, single point]"
21,CNC(=O)[C@@H](Cc1ccccc1)N1CCC[C@H]1C(=O)NC1CC1,inactive
22,CS(=O)(=O)Nc1ccccc1C(=O)NCC1(N2CCCCC2)CCCCC1,"inconclusive: 35.5 µM [inhibitor, partial curve, poor fit]"
23,CN1CCOc2c(C(=O)NCc3cnn(C)c3)cc(-c3ccc(CO)cc3)cc21,active: 20 µM

row,SMILES,Potency
1,c1ccc(-n2ncc3c(Nc4cccc5c4CCCC5)ncnc32)cc1,"inconclusive: 39.8 µM [inhibitor, single point]"
2,COc1ccc2cc(C(=O)NC3CCN(C(=O)c4ccccc4)CC3)c(C)nc2c1,"inconclusive: 31.6 µM [inhibitor, partial curve, poor fit]"
3,CCc1ccc(S(=O)(=O)c2nnn3c2nc(NC2CCCC2)c2ccccc23)cc1,"inconclusive: 63.1 µM [inhibitor, partial curve, poor fit]"
4,N#Cc1c(SCC(=O)NCc2ccccc2)nc2c(c1C(F)(F)F)CCCC2,inactive
5,CC(C)(C)CC(=O)N1CCC2(CC1)OCCN2S(=O)(=O)c1ccccc1,inactive
6,O=[S+]1([O-])NC2(CCN(CC3CCCC3)CC2)COc2ccccc21,active: 79.4 µM
7,COCCCNC(=O)NC(CCC(C)C)c1c(-n2cccc2)sc2c1CCN(C)C2 (centres undefined),"inconclusive: 35.5 µM [inhibitor, single point]"
8,CN=C(NC)NCc1ccc(Br)s1,inactive
9,O=C(Cn1nc2n(c1=O)CCCC2)Nc1ccc2c(c1)OCCO2,"inconclusive: 35.5 µM [inhibitor, partial curve, poor fit]"
10,COCCNc1ncc(-c2ccsc2)c2c1OCC2,active: 35.5 µM
11,COC(=O)C1=C(c2ccccc2)c2ccccc2S(=O)(=O)N1CC(=O)Nc1cc(Cl)ccc1C,"inconclusive: 22.4 µM [inhibitor, single point]"
12,COc1ccc(-c2c(C)c3ccc(O)c(CN4CCCC4)c3oc2=O)cc1,"inconclusive: 10 µM [inhibitor, partial curve, poor fit]"
13,Cc1ccc(CNC(=O)c2ccccc2NC(=O)c2nsc3ccccc23)cc1,"inconclusive: 15.8 µM [inhibitor, partial curve, poor fit]"
14,CN1CC(=O)N(C2CCCNCC2)Cc2c1ncnc2N1CCNC(=O)C1 (centres undefined),inactive
15,Cc1cc(C)cc(OCC(=O)Nc2ccc(C(=O)N(C)C)cc2)c1,inactive
16,CCc1c(CN2CCN(c3ccccc3F)CC2)csc1C,"inconclusive: 28.2 µM [inhibitor, single point]"
17,Cc1ccc(CNCc2ccccc2C(F)(F)F)cc1,inactive
18,O=C(Cn1c(-c2cccs2)cc2cc(F)ccc21)NCCCN1CCN(c2ccc(F)cc2)CC1,"inconclusive: 28.2 µM [inhibitor, partial curve, poor fit]"
19,NC(=S)NN=C1CCCCCCCCCCC1,"inconclusive: 31.6 µM [inhibitor, partial curve, poor fit]"
20,Cc1ccccc1NC(=O)c1ccc2c(c1)NC(=O)CS2,inactive
21,c1ccc(CN2CCNc3cc(-c4cccnc4)ncc3C2)cc1,active: 31.6 µM
22,Cc1nc2scc(CC(=O)N3CCC(C)CC3)n2c(=O)c1-c1cc(C)n(-c2cccc(Cl)c2)n1,"inconclusive: 15.8 µM [inhibitor, partial curve, poor fit]"
23,COc1ccc(NC(C)=[N+](C)CCNS(=O)(=O)c2ccc(Cl)cc2)cc1,"inconclusive: 39.8 µM [inhibitor, single point]"

row,SMILES,Potency
1,COc1ccc(CN2C[C@H]3CN(Cc4ccc(S(C)(=O)=O)cc4)CCN3C2=O)cc1,"inconclusive: 28.2 µM [inhibitor, single point]"
2,Cn1c(=O)c2c(nc(N3CCN(C(=O)Cc4ccccc4)CC3)n2Cc2ccccc2)n(C)c1=O,inactive
3,Cc1nn(C(=O)COc2ccccc2)c(C)c1S(=O)(=O)N1CCc2ccccc2C1,inactive
4,Cc1ccc(C)c(N2CCN(C(=O)CS(=O)(=O)c3cccc4nsnc34)CC2)c1,"inconclusive: 2.82 µM [inhibitor, partial curve, poor fit]"
5,COC(=O)c1c(NC(=O)c2ccc(S(=O)(=O)N(C)C3CCCCC3)cc2)sc2c1CCN(C)C2,"inconclusive: 17.8 µM [inhibitor, single point]"
6,CCOC(=O)C(Cc1ccccc1)NC(=O)CCc1c(C)nc2c(c(C)nn2-c2ccc(C)c(C)c2)c1C (centres undefined),"inconclusive: 15.8 µM [inhibitor, partial curve, poor fit]"
7,COc1cc(C)cc2oc(=O)c(CC(=O)NC3CCCCCC3)c(C)c12,"inconclusive: 22.4 µM [inhibitor, partial curve, poor fit]"
8,O=C(COc1ccc2nc3n(c(=O)c2c1)CCC3)NC1CCCCC1,inactive
9,CCn1nccc1C(=O)Nc1ccc(-c2nnc3n2CCCC3)cc1,inactive
10,Cc1nc2scc(CC(=O)NC(C)C(C)C)n2c(=O)c1-c1cc(C)n(-c2ccccc2F)n1 (centres undefined),"inconclusive: 25.1 µM [inhibitor, partial curve, poor fit]"
11,COc1ccc(-c2nc(Cn3c(SCc4ccccc4F)nc4cccnc43)c(C)o2)cc1,"inconclusive: 11.2 µM [inhibitor, partial curve, poor fit]"
12,CN(C)Cc1nnc(C2CCN(C(=O)c3cn4cccnc4n3)CC2)n1C,"inconclusive: 28.2 µM [inhibitor, partial curve, poor fit]"
13,Cc1nc2ccc(C(=O)NC(C(=O)O)c3c(C)n[nH]c3C)cc2[nH]1 (centres undefined),inactive
14,COc1ccc(CC(=O)NC2CC(=O)N(c3ccc(C)c(C)c3)C2)cc1OC (centres undefined),"inconclusive: 17.8 µM [inhibitor, partial curve, poor fit]"
15,COc1ccccc1CNC(=O)C(C)N1CCC(c2nc3cc(Cl)ccc3s2)CC1 (centres undefined),inactive
16,O=C(c1ccccc1F)N1CC(Oc2ccc3c(c2)OCO3)C1,"inconclusive: 56.2 µM [inhibitor, partial curve]"
17,CCn1c(N2CCN(C)CC2)nc2c1c(=O)[nH]c(=O)n2C,inactive
18,O=C(Cn1c(=O)oc2cc(S(=O)(=O)N3CCCCC3)ccc21)NCc1ccc(F)cc1,"inconclusive: 6.31 µM [inhibitor, partial curve, poor fit]"
19,CN(CC(=O)Nc1c(Cl)cccc1Cl)C(=O)CCc1ncc(-c2ccccc2F)o1,inactive
20,CS(=O)(=O)N1CCC(C2CCN(C3CCOCC3)C2)CC1 (centres undefined),"inconclusive: 28.2 µM [inhibitor, partial curve, poor fit]"
21,CCC(C)NC(=O)c1ccccc1-c1ncc(-c2ccccc2F)o1 (centres undefined),"inconclusive: 28.2 µM [inhibitor, partial curve, poor fit]"
22,CS(=O)(=O)N1CCC2(CC1)CC(CC(=O)O)CCO2 (centres undefined),inactive
23,Cc1ccc(C)c(C(=O)NC2CCN(c3cc(-c4ccc(F)cc4)[nH]n3)C2)c1 (centres undefined),"inconclusive: 7.08 µM [inhibitor, partial curve, poor fit]"
